# The shares of active, inactive and inconclusive entries below differ from those in the screen. Potencies beside an inconclusive call are fits to weak or partial responses and may not hold up. Active and inactive are the calls of the source. Calls follow the shape of the dose curve; as a rule, active = well fitted activation curve with a large enough effect; inconclusive = small, poorly fitted or top-dose-only effect; inactive = flat fitted curve, though single readings scatter.
# Target: Relaxin receptor 2 (Homo sapiens) (UniProt Q8WXD0)
# Test: qHTS Assay for Agonists of the Relaxin Receptor RXFP1: RXFP2 Hit Validation; also: nearly all actives have a fitted effect of over 65% in size
# Details: HEK293 RXFP2 cAMP TR-FRET, 30 min; series mostly up to 115 µM
# How it was run: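 Concentration-response EC50s (Hill equation) come from a cAMP TR-FRET assay in HEK293 RXFP2 cells, compound for 30 min at 37C with PDE4 inhibitor.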
# Potency is read from the fitted curve at half-maximal effect; tags tell the direction and shape of the fitted curve.
# Chain of UniProt Q8WXD0 (Q8WXD0 whole entry, looked up): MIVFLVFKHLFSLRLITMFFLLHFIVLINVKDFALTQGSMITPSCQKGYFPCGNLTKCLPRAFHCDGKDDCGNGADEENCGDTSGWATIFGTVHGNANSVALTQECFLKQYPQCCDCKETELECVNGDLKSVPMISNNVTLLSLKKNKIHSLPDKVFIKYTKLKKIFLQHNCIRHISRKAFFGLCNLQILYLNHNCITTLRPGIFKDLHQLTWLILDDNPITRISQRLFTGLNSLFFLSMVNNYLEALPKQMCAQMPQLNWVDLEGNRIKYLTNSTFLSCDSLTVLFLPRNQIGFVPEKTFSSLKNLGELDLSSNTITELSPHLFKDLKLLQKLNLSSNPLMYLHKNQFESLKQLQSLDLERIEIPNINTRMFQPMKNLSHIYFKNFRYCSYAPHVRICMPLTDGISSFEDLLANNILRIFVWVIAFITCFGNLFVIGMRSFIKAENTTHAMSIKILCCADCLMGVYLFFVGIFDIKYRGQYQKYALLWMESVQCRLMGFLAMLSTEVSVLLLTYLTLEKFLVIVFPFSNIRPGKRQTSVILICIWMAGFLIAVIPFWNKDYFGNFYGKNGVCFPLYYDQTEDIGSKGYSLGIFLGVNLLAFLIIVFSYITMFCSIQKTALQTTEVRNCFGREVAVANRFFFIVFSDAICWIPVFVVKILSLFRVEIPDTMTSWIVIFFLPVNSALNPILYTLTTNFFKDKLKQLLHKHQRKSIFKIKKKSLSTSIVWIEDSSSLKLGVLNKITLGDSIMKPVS
row,SMILES,Potency
1,Cc1cccc(N2C(=O)C(O)=C(C(=O)c3cccs3)C2c2ccc(C(C)C)cc2)n1 (stereo unspecified),"inconclusive: 43.6 µM [activator, partial curve]"
2,Cn1nc(-c2ccc(Cl)cc2)nc2c(=O)n(C)c(=O)nc1-2,"inconclusive: 13.8 µM [activator, partial curve]"
3,O=C(NCCOC(=O)c1ccc([N+](=O)[O-])cc1)c1cccnc1,"inconclusive: 38.9 µM [activator, partial curve]"
4,Cn1c(=O)c(C(=O)COc2ccc(C#N)cc2)c(N)n(Cc2ccccc2)c1=O,"inconclusive: 34.6 µM [activator, partial curve]"
5,N#C/C(=C/c1ccc(OCc2ccccc2)cc1)C(=O)NC1CCCCC1,inactive
6,CCn1c(SCC(=O)Nc2ccc(NC(C)=O)cc2)nc2c1c(=O)n(C)c(=O)n2C,active: 27.5 µM
7,CCN(CC)S(=O)(=O)c1ccc(C)c(NC(=O)Cn2cnc3cc([N+](=O)[O-])ccc3c2=O)c1,active: 30.9 µM
8,CSCCC(NS(=O)(=O)c1ccc2c(c1)c(=O)n(C)c(=O)n2C)C(=O)NC1CCN(Cc2ccccc2)CC1 (stereo unspecified),"inconclusive: 38.9 µM [activator, partial curve]"
9,Cc1nn(CCc2nn[nH]n2)c2nc(-c3ccc(Br)cc3)cc(C(F)(F)F)c12,"inconclusive: 17.3 µM [activator, partial curve]"
10,O=C1CCCN1CCCNc1ccc2nnc(CCC(=O)N3CCN(c4ccccc4)CC3)n2n1,"inconclusive: 34.6 µM [activator, partial curve]"
11,O=C(Nc1ccccc1C(=O)Nc1ccccc1)c1ccco1,inactive
12,O=C(O)CCSc1ccc2ccccc2n1,active: 19.4 µM
13,COc1ccc(C(=O)COC(=O)Cn2cnc3c2c(=O)n(C)c(=O)n3C)c(OC)c1,"inconclusive: 38.9 µM [activator, partial curve]"
14,Cn1c2ccccc2c2nnc(SCCN3CCOCC3)nc21,"inconclusive: 38.9 µM [activator, partial curve]"
15,O=C1/C(=C/c2ccc(O)c(O)c2)Oc2cc(O)ccc21,"inconclusive: 43.6 µM [activator, partial curve]"
16,Cc1cc(C)nc(NS(=O)(=O)c2ccc(NC(=O)c3nn(-c4ccccc4)ccc3=O)cc2)n1,"inconclusive: 30.9 µM [activator, partial curve]"
17,CC(C)n1cnc2c(N(C)c3cccc(Cl)c3)nc(N(CCO)CCO)nc21,inactive
18,COc1ccc(-n2nc(C(=O)NCC(=O)NCCCN3CCOCC3)c3ccccc3c2=O)cc1Cl,"inconclusive: 38.9 µM [activator, partial curve]"
19,CC(=O)c1c(C)[nH]c(C(=O)OCc2cc(=O)n3cc(Br)ccc3n2)c1C,"inconclusive: 7.74 µM [activator, full curve]"
20,CCS(=O)(=O)Nc1cccc(-c2ccc3nnc(-c4cccnc4)n3n2)c1,"inconclusive: 38.9 µM [activator, partial curve]"
21,Cn1c(=O)c2sccc2n2c(CCCC(=O)NCCc3ccccc3)nnc12,"inconclusive: 34.6 µM [activator, partial curve]"

# From PubChem BioAssay AID489043 (National Center for Advancing Translational Sciences (NCATS), 2010)
